Measured values taken from PubChem BioAssay AID624417 (National Center for Advancing Translational Sciences (NCATS), 2012).
Screen size: about 410,000 compounds; about 6,400 (1.6%) were called active. Inconclusive results, whose numbers are uncertain, are shown with a selection of clear calls. The call rests on the fitted dose curve; in most records, active means well fitted inhibition curve with a large enough effect; inconclusive means small, poorly fitted or top-dose-only effect; inactive means no such curve, though single readings can be large or run the other way. Potencies of inconclusive entries are left out as doubtful fits.

target: Glucagon-like peptide 1 receptor (Homo sapiens) (UniProt P43220); assay: qHTS of GLP-1 Receptor Inverse Agonists (Inhibition Mode); conditions: HEK293 GLP-1R CRE-luciferase, luminescence, 24 h, GLP-1R form is constitutively active; activity change, negative = inhibition: at 38.3 µM (top of the series) unless noted; further: nearly all actives have a fitted effect of over 55% in size
Procedure, shortened: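 Readout was luciferase luminescence, measured 12 min after detection reagent at room temperature. Beforehand, GLP-1R reporter HEK293 cells had sat 12 h, then received compounds for 24 hr at 37 deg C.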
On the % scale 0 is the no-effect control and ±100 the full control effect; potency means the concentration at half of the fitted maximal effect; tags describe the fitted curve by direction and shape.

Chain of UniProt P43220 (P43220 whole entry, looked up): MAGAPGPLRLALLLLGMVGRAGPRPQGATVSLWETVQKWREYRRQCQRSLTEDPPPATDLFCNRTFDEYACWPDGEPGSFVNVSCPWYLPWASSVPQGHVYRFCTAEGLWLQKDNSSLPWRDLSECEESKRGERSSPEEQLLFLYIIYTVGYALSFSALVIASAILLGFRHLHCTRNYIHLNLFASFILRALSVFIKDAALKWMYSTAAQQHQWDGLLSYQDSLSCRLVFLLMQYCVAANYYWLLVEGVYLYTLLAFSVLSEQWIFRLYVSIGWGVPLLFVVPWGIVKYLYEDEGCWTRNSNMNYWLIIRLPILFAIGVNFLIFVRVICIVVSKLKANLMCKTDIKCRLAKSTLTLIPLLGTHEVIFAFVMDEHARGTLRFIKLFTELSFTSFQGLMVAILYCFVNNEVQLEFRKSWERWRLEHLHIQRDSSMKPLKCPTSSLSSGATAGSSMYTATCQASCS

Compound | Potency | activity change, negative = inhibition
CC(C)Oc1ccc(C(=O)NCCc2csc(-c3cccc(F)c3)n2)cc1 | inconclusive [inhibitor, partial curve, poor fit] | 
CCC(C)n1c(SCC(=O)Nc2cc(C(C)(C)C)nn2-c2ccccc2)nc2ccccc2c1=O (stereo not drawn) | active: 11.2 µM | 
O=c1[nH]c2cc(Cl)ccc2c(O)c1-c1cccc(Oc2ccccc2)c1 |  | inactive: 4.92%
Oc1ccccc1-c1nc(NC2CCCC2)c2ccccc2n1 | inconclusive [inhibitor, full curve, poor fit] | 
C=C(C)C1CC=C(C)/C(=N/NC(=O)c2ccccc2[N+](=O)[O-])C1 (stereo not drawn) | inconclusive [inhibitor, partial curve, poor fit] | 
Cc1ccc(S(=O)(=O)N2CCN(CC(=O)NC3CCCc4ccccc43)CC2)cc1C (stereo not drawn) | inconclusive [inhibitor, partial curve, poor fit] | 
COC(=O)[C@@]1(Cc2ccc(OC)cc2)[C@H]2c3cc(C(=O)N4CCCC4)n(CCc4ccc(OC)c(Br)c4)c3C[C@H]2CN1C(=O)c1ccccc1 | inconclusive [inhibitor, single point] | 
O=C(CCNC(=O)c1ccccc1Cl)Nc1nc2ccccc2s1 |  | inactive: -12.9%
Cc1ccc(NC(=O)C2CCN(C(=O)c3sc4nc[nH]c(=O)c4c3C)CC2)cc1F |  | inactive: -9.24%
CCOC(=O)C1C(=O)C=C(c2cccs2)CC1c1ccccc1 (stereo not drawn) | inconclusive [inhibitor, partial curve, poor fit] | 
O=[N+]([O-])c1cc(C(F)(F)F)ccc1NC1CCN(Cc2ccccc2)CC1 | inconclusive [inhibitor, partial curve, poor fit] | 
CCOC(=O)C1CCN(C(=O)c2sccc2Cl)CC1 | inconclusive [inhibitor, partial curve, poor fit] | 
COc1ccccc1C(=O)Nc1ccccc1OCc1cc(=O)n2cc(C)sc2n1 | inconclusive [inhibitor, single point] | 
CCOc1cccc(C(=O)N(Cc2ccc(C(C)C)cc2)C2CCS(=O)(=O)C2)c1 (stereo not drawn) |  | inactive: -21.6%
O=C(c1ccc(Br)o1)N1N=C(c2ccc(Cl)cc2)CC1c1ccco1 (stereo not drawn) | inconclusive [inhibitor, single point] | 
O=C(Nn1c(Cc2cccs2)nc2ccccc2c1=O)c1ccc(F)c(F)c1 | inconclusive [inhibitor, partial curve, poor fit] | 
CC12CCC(C/C1=N\N=C1\NC(=O)/C(=C\c3cccc(Br)c3)S1)C2(C)C (stereo not drawn) | inconclusive [inhibitor, single point] | 
C=CCc1ccc(OCCOCCOc2cccc3ccc(C)nc23)c(OC)c1 | inconclusive [inhibitor, single point] | 
COc1cccc(C2(c3cccc(OC)c3)CC2C(=O)Nc2ccc(F)cc2)c1 (stereo not drawn) | inconclusive [inhibitor, partial curve, poor fit] | 
CCCN1CCN(CCCNC(=O)c2cc3c(s2)-c2c(C)cccc2OC3)CC1 | inconclusive [inhibitor, partial curve, poor fit] | 
NC(=O)c1c(NC(=O)CS(=O)(=O)c2ccc(Cl)cc2)sc2c1CCCC2 |  | inactive: -23.5%

Compound | Potency | activity change, negative = inhibition
N#Cc1cccc(NC(=O)c2nc(-c3ccccc3)n(-c3ccccc3)n2)c1 | inconclusive [inhibitor, partial curve, poor fit] | 
Cc1cc(-c2nnco2)c(C)n1-c1ccc(F)cc1 |  | inactive: 56.7%
O=C(CC(=O)c1ccccc1)Nc1ccc(Cl)cc1 | inconclusive [inhibitor, partial curve, poor fit] | 
CCCSc1nnc(NC(=O)c2cc(=O)c3ccccc3o2)s1 |  | inactive: 18%
Cc1ccccc1OCCC(=O)Nc1ccc(Cl)cc1F | inconclusive [inhibitor, single point] | 
COc1cccc(N/C(SCc2cccc([N+](=O)[O-])c2)=C(/C#N)C(N)=O)c1 | inconclusive [inhibitor, single point] | 
Cc1ccc(NS(=O)(=O)c2cccc3cccnc23)c(Br)c1 | inconclusive [inhibitor, partial curve] | 
Cc1cc(C)n(-c2cc(C(C)(C)C)nc3c(-c4ccccc4)cnn23)n1 | inconclusive [inhibitor, single point] | 
O=C(NC(=S)N(CC1CCC1)CC1CCCO1)c1cccc([N+](=O)[O-])c1 (stereo not drawn) |  | inactive: -17.6%
Cc1ccc(Cl)cc1NC(=S)NCCCSC1CCCCC1 | inconclusive [inhibitor, partial curve, poor fit] | 
O=C(O)/C=C/C(=O)Nc1ccccc1SC(F)(F)C(F)(F)C(F)(F)F | inconclusive [inhibitor, single point] | 
Cc1c(N=C2NC(=O)C(CC(=O)Nc3ccccc3)S2)c(=O)n(-c2ccccc2)n1C (stereo not drawn) | inconclusive [inhibitor, full curve, poor fit] | 
O=C(NCc1cn(-c2ccccc2)nc1-c1ccccc1)c1cccc([N+](=O)[O-])c1 | inconclusive [inhibitor, single point] | 
FC(F)(F)c1cccc(NCc2n[nH]c(=S)n2C2CCCCC2)c1 | inconclusive [inhibitor, partial curve, poor fit] | 
CS(=O)(=O)Nc1ccc(C(=O)NCCSc2ccc(Cl)cc2)cc1 | inconclusive [inhibitor, partial curve, poor fit] | 
CN(C)c1cccc(C(=O)Nc2ccc(N3CCOCC3)cc2)c1 |  | inactive: 6.07%
O=C(C(NS(=O)(=O)c1cccc2nsnc12)c1ccccc1)N1CCN(c2ccccc2)CC1 (stereo not drawn) | inconclusive [inhibitor, partial curve, poor fit] | 
Cc1ccc(NC(=O)CCN2C(=O)c3ccccc3Sc3ncccc32)cc1 | inactive | 
Nc1nonc1-c1nc2ccccc2n1CC(=O)Nc1cccc(C(F)(F)F)c1 | inconclusive [inhibitor, partial curve, poor fit] | 
O=C(CCc1nc2ccccc2c(=O)[nH]1)Nc1ccc(F)cc1 |  | inactive: 10%
O=C(CCCN1CCC(O)(c2ccc(Cl)cc2)CC1)c1ccc(F)cc1 | inconclusive [inhibitor, single point] | 

Compound | Potency | activity change, negative = inhibition
COc1ccc(C(c2nnnn2C2CCCCC2)N2CCN(c3ccc(OC)cc3)CC2)cc1 (stereo not drawn) | inconclusive [inhibitor, single point] | 
CC(=O)Nc1ccc(OCC(O)CN2CCN(c3cc(Cl)ccc3C)CC2)cc1 (stereo not drawn) | inconclusive [inhibitor, partial curve, poor fit] | 
CSC1=NC(C(Cl)(Cl)Cl)N=C(c2ccc(C)cc2)N1 (stereo not drawn) | inconclusive [inhibitor, full curve, poor fit] | 
CC(C)(C)CC(C)(C)NCC(=O)Nc1c2c(nc3ccccc13)CCC2 | inconclusive [inhibitor, single point] | 
COc1cc(/C=N/O)ccc1Oc1ccc([N+](=O)[O-])cc1[N+](=O)[O-] | inconclusive [inhibitor, single point] | 
O=c1c2ccccc2nc(SCc2ccccc2)n1CC1CCCO1 (stereo not drawn) | inconclusive [inhibitor, partial curve, poor fit] | 
CCOC(=O)N1CCN(Cc2nc3cc(NC(=O)CC(C)C)ccc3n2C(C)C)CC1 | inconclusive [inhibitor, full curve, poor fit] | 
COc1cc(CNc2ccc(S(N)(=O)=O)cc2)ccc1OCc1ccccc1F | inconclusive [inhibitor, single point] | 
Clc1ccccc1CNCCCSc1nnnn1-c1ccccc1 | inconclusive [inhibitor, single point] | 
O=C(Nc1nnc(CCN2CCCCC2)s1)C1CCCCC1 | inconclusive [inhibitor, partial curve, poor fit] | 
Cn1c(SCc2cccc([N+](=O)[O-])c2)nc2c(c1=O)SCC2 | inconclusive [inhibitor, partial curve, poor fit] | 
CCCNC(=O)c1nnsc1S(=O)(=O)c1ccc(Cl)cc1 | inconclusive [inhibitor, partial curve, poor fit] | 
CC(=O)Nc1ccc(C(=O)N/N=C(\C)CC(=O)Nc2ccc(OCc3ccccc3)cc2)cc1 | inconclusive [inhibitor, partial curve] | 
Cn1nc(C(F)(F)F)cc1C(=O)Nc1ccc(Cl)cc1 | inconclusive [inhibitor, single point] | 
CCOCCCNC(=O)Cn1ncc2c([nH]c3ccccc32)c1=O |  | inactive: 8.85%
CCC(C)[C@@H](C(=O)Nc1ccc2c(c1)OCO2)N1Cc2ccccc2C1=O (stereo partly drawn) | inconclusive [inhibitor, partial curve, poor fit] | 
C[C@@H]1CN([C@@H](C)CO)C(=O)c2cc(Br)cnc2O[C@H]1CN(C)Cc1ccc(-c2ccccc2)cc1 | inconclusive [inhibitor, partial curve, poor fit] | 
O=C(O)C1OC(Oc2cc3oc(-c4ccccc4)cc(=O)c3c(O)c2O)C(O)C(O)C1O (stereo not drawn) |  | inactive: 30.1%
CC(=O)Nc1cccc(NC(=O)CS(=O)(=O)c2cn(CC(=O)N3CCCC3)c3ccccc23)c1 |  | inactive: -9.05%
Cn1ccnc1SCc1cn2cc(Br)ccc2n1 | active: 4.47 µM | 
COc1ccc(-c2noc(CCC(=O)NC3CCCCCC3)n2)cc1 | inconclusive [inhibitor, single point] | 
